Measured values published in paper PMC12136788.
Positions count from the first letter of the chain named. The list shows a part of the results.

B1: chr11:103733960:103733961:-_ENSMUSG00000034187_ENSMUST00000103075|mus_hu|motif|central (ssRNA)
RNA: GGGAGUUCUACAGUCCGACGAUCCAUUUUAACUUCCAGUCUUCCAGGUCUAAGAAGAGCCUCAUCUAUCAGAUCUGGUCGGUUGGUCAUUCCAAUGACUAGGAUGUUGUUUAGCUGCUCCACGCCAUCAAUUUUGGACAGCAACAACAGAGGAUUGAGCAUCA
B2: chr5:130458811:130458812:+_ENSMUSG00000066735_ENSMUST00000051758|mus_hu|motif|central (ssRNA)
RNA: GGGAGUUCUACAGUCCGACGAUCUUUUCACUAUCUCCUCAGUCAACGCUGAGCUGACAGUUCUUCAGUGCUACACUCCAACGGAACUGUACAGUAAGUUCUGCAGAAAUGGAUCUAAUAUUUCUACCUUUAUUUACAAAUAUCCAACAGAGGAUUGAGCAUCA
B3: chr5:128440902:128440903:+_ENSG00000066583_ENST00000173527|hu_mus|hu_hu_hu_mus_True|18_88 (ssRNA)
RNA: GGGAGUUCUACAGUCCGACGAUCUUGAACGGUGCUGCCAAGUCCUUUAGGGUAUUGUUCCGUUAUGAUAACUGGAAUCCCUAAGAUCCGAGCUCCUUGCAACAGUCUCUGUCCCACGCUAAUAAUAUCCCCAAAGUAUUUGAUCAACAGAGGAUUGAGCAUCA
B4: 33000953_33002139_1353_CDS_ENSMUSG00000038831_ENSMUST00000042615|mouse|control|control (ssRNA)
RNA: GGGAGUUCUACAGUCCGACGAUCUCUCAGAGGCCCCUCCAUAGUGGGCACAGUGGCUGAGCUUCCCACAGUACAGGUGCAAGGGCUCGUGGGGCUGUAGACACAGCUCCGAGUUCUGGGAGAAUUCCGAACUGGAACCCGCCACAACAGAGGAUUGAGCAUCA
B5: chr5:135496556:135496557:+_ENSG00000113658_ENST00000545279|hu_hu|motif|central (ssRNA)
RNA: GGGAGUUCUACAGUCCGACGAUCGUUCCUAAACUGAACCAGAAGGCUGUGUUGUGGAUUGAAUUCAUUAUGACGAGGCACGGAUACUGGAGGUAAGACUGGACUCUCCACUCUCUUAUAGUGGUAUGGGUUGAUACAAACUUCCAACAGAGGAUUGAGCAUCA
B6: chr1:54681892:54681893:+_ENSG00000116221_ENST00000360840|hu_hu|motif|central (ssRNA)
RNA: GGGAGUUCUACAGUCCGACGAUCCCAGGCCAAAUUCUUGACACCCUCGUUACAGUCCAGGUCUGUGGUAUUCAGUUGAAACACGGGGAAAUGGAAGACACGUCCAUCCGUGCCCACGCUCUGCACCACCACGGGCUGCUCCAACAACAGAGGAUUGAGCAUCA
B7: chr10:98487791:98487792:+_ENSMUSG00000019943_ENSMUST00000020107|mus_mus|FALSE|FALSE (ssRNA)
RNA: GGGAGUUCUACAGUCCGACGAUCCAUGCAGCACGUUAAUGGCAAAUUCAAGACGAGGAGUCCACCUUGGGCUCCUGGUCUAAAUAUGCGUCCCAGCAUAUCAUGCUACCUCUUUUUACAGUAUGAAUAACUACAAACACCUGACAACAGAGGAUUGAGCAUCA
B8: chr2:48026839:48026840:+_ENSG00000116062_ENST00000540021|hu_hu|hu_hu_hu_mus_False|1_108 (ssRNA)
RNA: GGGAGUUCUACAGUCCGACGAUCAUAGUGUGCCACUAGCGUCCUAAAUCUGGAACAGUGGCGGUCAUCCGAAAACUGGCCGAUGAAAAACUUGCCCAGUGAAGUGUCCACAAAGCAAACACCAUACACACGAGUGUGGCCAGACAACAGAGGAUUGAGCAUCA
B9: chr15:12269436:12269437:+_ENSMUSG00000022200_ENSMUST00000059680|mus_mus|FALSE|FALSE (ssRNA)
RNA: GGGAGUUCUACAGUCCGACGAUCUAAAAGACUUUUUCUUCUCAUUCCACAAGCCUCUAACUGUAACCUUCCUCUCAAAGCUAAUUCAAUUAACAUACAGCCACGUAAUCCAGAUGAUAUACAGUCAUUCCAAAAUGAUGUGUACAACAGAGGAUUGAGCAUCA
B10: chr7:44244176:44244177:+_ENSG00000106636_ENST00000223369|hu_mus|FALSE|FALSE (ssRNA)
RNA: GGGAGUUCUACAGUCCGACGAUCACUGUCGCUCCGGACGUAGACAUGGCAAAGAUACUCUUGUUCUUUGACAGAAGCUCUGCUGCCUUUCCCCGAGCGUUCCACAAUCAGUUGACUUGUAAAGGUCAUGAAUUCCUGCACACUCAACAGAGGAUUGAGCAUCA
B11: chr10:33190432:33190433:-_ENSG00000150093_ENST00000302278|hu_mus|hu_hu_hu_mus_True|18_68 (ssRNA)
RNA: GGGAGUUCUACAGUCCGACGAUCUACAUUUUCCAAACCUGCAUGUGAAUAAAACCCUGGCCACAGAGCCCUAAAGCUACCCUACUGUGACUAAGAUGCUGCUGCUGUGAGCUUGGUUGUUGUGGGACCGCCUGAGUAGGAUUCCAACAGAGGAUUGAGCAUCA
B12: 184045049_184045169_3417_CDS_ENSG00000114867_ENST00000411531|human|control|control (ssRNA)
RNA: GGGAGUUCUACAGUCCGACGAUCGGGCCGUUCUCUACUCCGCUCCUCCACUUCCUUGCUGAAGCUCCGCUUGGUAGCAGGUGUCCGCGCACGAUCAAGCCGGUCCCCACGGUCCCCUCCCCGUUCACUCCGCUCUAGGCGGUCCAACAGAGGAUUGAGCAUCA
B13: chr16:94664806:94664807:+_ENSMUSG00000040785_ENSMUST00000117648|mus_hu|FALSE|FALSE (ssRNA)
RNA: GGGAGUUCUACAGUCCGACGAUCAUGAUGACCCUCAAAAUAGGCAGCAGCAUUUUUAUCUGCUCUGUCAUUGGCUACAAAAGACGGCACCACUGGUACUGAUCUUGGUAGCUGAUAUUCAGGAGAAAGGCUGGCCAAGGGUGUCAACAGAGGAUUGAGCAUCA
B14: chr1:163117127:163117128:-_ENSG00000143248_ENST00000313961|hu_hu|FALSE|FALSE (ssRNA)
RNA: GGGAGUUCUACAGUCCGACGAUCGCAGGGUUAUUAUGGAGGAAAUAACUCACAGGAUGAUUUCAUAGCCUGGCUAAAUUACUACUUGAUUAACUCCUGAUAAAACUCAGAGCGCACAAAGCGAGGCAGAGAAUCCUUUUCCAUCAACAGAGGAUUGAGCAUCA
B15: 54565288_54565408_3335_CDS_ENSG00000067248_ENST00000251636|human|control|control (ssRNA)
RNA: GGGAGUUCUACAGUCCGACGAUCAAUCUUGACAUUCACAGGUAAAGCUGCAAGGUGUUGGCCCAACGGAGUCAGUUUAGGCUCAUUUAAUUCACAAGCUCCAAUUUUUCGGAGCAAAUUCAUUGCAUUGCUGAUCACUUGGAGCAACAGAGGAUUGAGCAUCA
B16: 110450171_110450291_691_CDS_ENSMUSG00000044791_ENSMUST00000153838|mouse|control|control (ssRNA)
RNA: GGGAGUUCUACAGUCCGACGAUCCAUUAGUGCUGUUGCUGGGGGUUGCGGCAAGGCCACUGGCUCUGAUAUCUGUGCUGGUGGUGAGGGUGAUGAGGCCUGGGGAGGUGGAGGAGGUGGGGGUGGAGAUGAAGGUGGUGAGUCCAACAGAGGAUUGAGCAUCA
B17: chr2:48026839:48026840:+_ENSG00000116062_ENST00000540021|hu_hu|hu_hu_hu_mus_False|48_78 (ssRNA)
RNA: B8 RNA with U30A, G57A, G63A, G93U, G138A
B18: chr2:42509997:42509998:+_ENSG00000143924_ENST00000318522|hu_mus|hu_hu_hu_mus_True|38_68 (ssRNA)
RNA: GGGAGUUCUACAGUCCGACGAUCUCGCUGAGUCCUCUCCUCAUAAUUAAACAGGACUACCACUGAGGCAAUGAAAUAAACUAUCUCCCCUGUGGGAAGAAGGUAAACAUUCGCUCUACAGUCCUUUCCUCGAUAACCGUAUACCAACAGAGGAUUGAGCAUCA
B19: chr6:41757443:41757444:+_ENSG00000214736_ENST00000398881|hu_mus|hu_hu_hu_mus_False|38_78 (ssRNA)
RNA: GGGAGUUCUACAGUCCGACGAUCGAACCGUGCAGAGGCAACAUCUCAGCCGACACUGUGGACUCAAGGGGCAGUGGGGGGGGGUUCAGGCAAGGAGAAGAAAAGUGCUUCAGCUGCCACUCAGGUAGGAUCUUGUGGUCACAGCAACAGAGGAUUGAGCAUCA
B20: 33885606_33886921_1799_CDS_ENSG00000170248_ENST00000307296|human|control|control (ssRNA)
RNA: GGGAGUUCUACAGUCCGACGAUCGUUGGUUCCCUCUGCUCUUAAAGGCUUAUACAGUUCAUUGGAUGGUGUCCUUUGCCAACGUUCCUUAAAUUUUGCUCUUAAAUCAUUAUCGGUUGCUUCUUCUUCAUCCAACAACCUUAACAACAGAGGAUUGAGCAUCA
B21: chr1:52991732:52991733:-_ENSG00000134744_ENST00000257177|hu_hu|motif|central (ssRNA)
RNA: GGGAGUUCUACAGUCCGACGAUCUUUAGGACCUGGAAGGUUGGCAGCAUUUACUUUACAUGAUUUAACUUCUGUUUUUUCGGUACAAAUAUCAUUUUGCUUAUUUUUUUUACUACUAUUCCUAUUUGGAGAGCUGUUCUCAAUCAACAGAGGAUUGAGCAUCA
B22: 208598739_208606946_670_CDS_ENSG00000163249_ENST00000295414|human|control|control (ssRNA)
RNA: GGGAGUUCUACAGUCCGACGAUCUGUAAGUGGAUGUGAUCUCUCAUCAAAAAUAUCCAGGGAUCUAUUUGCAUCUCUGUUCUUUAUGUGGUAAUAUAUUGCUAAGGUCACACAUUUUACUGUGGUUCUAAGAUUAGGCUGGCUCAACAGAGGAUUGAGCAUCA

These binders were tested against T1, UNK ZnF1-3 (human, UniProt Q9C0B0 31-174) (assay: nsRBNS (natural sequence RNA bind-n-seq); RBNS binding buffer (assumed for nsRBNS): 25 mM Tris pH 7.5, 150 mM KCl, 3 mM MgCl2, 0.01% Triton X-100, 500 ug/ml BSA, 20 U/ml SUPERase-In, 4 C; UNK is unkempt and MSI1 is Musashi-1; names of the RNAs are library labels; protein concentration not given here; high values mean tight binding).
T1 sequence: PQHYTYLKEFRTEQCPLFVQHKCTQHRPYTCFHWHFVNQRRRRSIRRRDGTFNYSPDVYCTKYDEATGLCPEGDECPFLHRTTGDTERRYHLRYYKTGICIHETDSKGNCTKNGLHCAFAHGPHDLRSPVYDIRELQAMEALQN

Binder	binding signal [enrichment R]
B1	0.818
B2	0.527
B3	0.799
B4	1.43
B5	1.31
B6	0.909
B7	0.799
B8	0.968
B9	0.964
B10	0.701
B11	0.972
B12	0.975
B13	1.25
B14	1.65
B15	1.08
B16	1.19
B17	1.26
B18	0.815
B19	1.73
B20	0.557
B21	0.639
B22	0.935
